From PubChem BioAssay AID485294 (National Center for Advancing Translational Sciences (NCATS), 2010)
Hit rate of the full screen: of about 370,000 compounds, about 150 (0.041%) were called active. Inconclusive means that the source gave no clear call. Such entries were picked first, then a sample of the others. Calls come from the whole dose curve; as a rule, active = well fitted inhibition curve with a large enough effect; inconclusive = small, poorly fitted or top-dose-only effect; inactive = flat fitted curve, though single readings scatter. Potencies of inconclusive entries are left out as doubtful fits.

biological target: Beta-lactamase (Escherichia coli (strain K12)) (UniProt P00811); assay: qHTS Inhibitors of AmpC Beta-Lactamase (assay with detergent); details: AmpC hydrolysis of nitrocefin, absorbance 480 nm, 0.01% Triton; activity change, negative = inhibition: at 114 µM (top of the series); note: nearly all actives have a fitted effect of over 25% in size;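 for activity change, negative = inhibition: 0% = no-compound wells and -100% = no-enzyme wells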
UniProt P00811, sequence (P00811 whole entry, looked up): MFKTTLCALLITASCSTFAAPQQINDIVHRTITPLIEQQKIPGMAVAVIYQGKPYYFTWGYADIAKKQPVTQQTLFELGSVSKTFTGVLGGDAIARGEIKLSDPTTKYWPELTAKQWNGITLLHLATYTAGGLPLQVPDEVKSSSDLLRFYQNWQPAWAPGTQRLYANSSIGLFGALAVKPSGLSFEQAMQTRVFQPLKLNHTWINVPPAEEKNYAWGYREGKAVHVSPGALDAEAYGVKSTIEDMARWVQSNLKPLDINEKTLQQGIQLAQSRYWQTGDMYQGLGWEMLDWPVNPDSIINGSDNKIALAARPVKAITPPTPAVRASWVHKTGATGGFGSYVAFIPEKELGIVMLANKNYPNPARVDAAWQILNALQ
In short: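 20 mM phosphate pH 7.0 + 0.01% (detergent screen) or 0.0001% Triton X-100; 5.3 nM AmpC reagent; cpd preinc 15 min RT; nitrocefin (800 uM stock) to start; A480 q20 s × 4 min; Activity was normalised to no-enzyme and no-compound control wells.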
Potency is the fitted concentration of half-maximal effect; tags give direction and shape of the fitted curve.

Structure (SMILES) | Potency | activity change, negative = inhibition
CCn1cc(S(=O)(=O)CC(=O)Nc2ccc3c(c2)OCCO3)c2ccccc21 | inconclusive [inhibitor, partial curve, poor fit] | –
O=C(Cc1cn2ccsc2n1)Nc1ccccn1 | inconclusive [inhibitor, full curve, poor fit] | –
CCOCCCNC(=O)c1ccc(NC(=O)N2CCCCc3ccccc32)cc1 | – | inactive: 10%
COc1ccccc1NC(=O)Cn1c(=O)n(-c2ccc(C)cc2)c(=O)c2ccc(C(=O)NCc3ccco3)cc21 | – | inactive: -2.81%
Cc1ccc(NC(=O)c2nnn(CC(=O)Nc3ccc4c(c3)OCO4)c2N)cc1C | – | inactive: -13.8%
COc1ccc(NC(=O)CN(C)C(=O)c2ccc3c(c2)OCCO3)cc1 | inconclusive [inhibitor, full curve, poor fit] | –
Cc1c(N=Nc2c(-c3ccc([N+](=O)[O-])cc3)[nH]n(C(N)=S)c2=O)cccc1[N+](=O)[O-] | inconclusive [inhibitor, partial curve, poor fit] | –
Cc1ccc(NC(=O)c2cccc(N3CCCS3(=O)=O)c2)cc1 | – | inactive: -2.06%
CCN(CC)S(=O)(=O)c1ccc2[nH]cc(C(=O)NCCN3CCCCCC3)c(=O)c2c1 | – | inactive: -4.63%
CN(CC(=O)Nc1ccc(Cl)cc1)C1CCCCC1 | inconclusive [inhibitor, single point] | –
Cn1ccnc1SCC(=O)Nc1sccc1C#N | inconclusive [inhibitor, single point] | –
CCCCc1cc(=O)oc2cc(OCC(=O)N3C[C@H]4C[C@@H](C3)c3cccc(=O)n3C4)c(Cl)cc12 | inconclusive [inhibitor, full curve, poor fit] | –
COc1ccc(C2=NOC(C(=O)NCc3ccccc3)C2)cc1 (centres undefined) | – | inactive: -13%
COc1ccc(C(=O)CCC(C)(C)[N+](=O)[O-])cc1 | inconclusive [inhibitor, full curve, poor fit] | –
Cc1ccc(NC(=O)C2C3/C=C\CCCCC32)cc1C (centres undefined) | inconclusive [inhibitor, full curve, poor fit] | –
CC(OC(=O)/C(C#N)=C/c1ccc(N(C)C)cc1)C(=O)NCc1ccco1 (centres undefined) | inconclusive [inhibitor, partial curve, poor fit] | –
CCN(Cc1nc2ccccc2c(=O)[nH]1)C(=O)COc1ccccc1Cc1ccccc1 | inconclusive [inhibitor, partial curve, poor fit] | –
CSc1ncc2c(n1)-c1cc(C)ccc1SC2 | inconclusive [inhibitor, single point] | –
CC1(C)Cc2c(cnn2-c2cccc(F)c2)C(NC(=O)Cn2cccn2)C1 (centres undefined) | – | inactive: -8.64%
Cc1cc(C(F)F)nn1CC(=O)N1CCSCC1 | inconclusive [inhibitor, full curve, poor fit] | –
O=C(c1ccc([N+](=O)[O-])cc1[N+](=O)[O-])N1CCc2ccccc21 | – | inactive: 1.31%
Cc1nn(Cc2cccc(C(=O)NC3CCCCC3)c2)c(C)c1Cl | inconclusive [inhibitor, full curve] | –

Structure (SMILES) | Potency | activity change, negative = inhibition
Cc1ccccc1N1C(=O)CN(Cc2sccc2C)C1=S | inconclusive [inhibitor, single point] | –
O=c1c(N2CCOCC2)c(N2CCOCC2)c1=O | – | inactive: -3.43%
CC1=C(C(=O)Nc2cccc(C(=O)NCc3ccccc3C)c2)SCCO1 | – | inactive: -2.52%
O=C1CC(N2CCC(c3nc4ccccc4[nH]3)CC2)C(=O)N1c1cccc(F)c1 (centres undefined) | – | inactive: -10.9%
CCCNC(=O)Cn1cnc2sc(C(=O)N3CCC4(CC3)OCCO4)c(C)c2c1=O | inconclusive [inhibitor, partial curve, poor fit] | –
CC(C)(C)n1nnnc1C(c1cc2cc3c(cc2[nH]c1=O)OCCO3)N1CCSCC1 (centres undefined) | inconclusive [inhibitor, full curve, poor fit] | –
CC(C)N(Cc1ccccc1)c1ncnc2c1nnn2C | – | inactive: -4.43%
Cc1nc(Cl)sc1C(=O)Nc1ccc(C(C)(C)C)cc1 | – | inactive: 3.53%
O=C1c2ccccc2C(=O)c2c1ccc1c(=O)n(C3CCCCC3)[nH]c21 | inconclusive [inhibitor, full curve, poor fit] | –
CON1C(=O)C(=O)N(OC)C(C)(C)C1C (centres undefined) | – | inactive: 1.01%
C[C@@](Cc1ccccc1)(C(=O)O)N1C(=O)c2ccc(C(=O)O)cc2C1=O | inconclusive [inhibitor, full curve, poor fit] | –
Cc1cc(C)n2nc(C(=O)Nc3ccc4c(c3)CCC4)nc2n1 | inconclusive [inhibitor, partial curve] | –
CCC(C(=O)NC1CCCC1)N(C(=O)Cn1nnc(-c2ccc(OC)c(OC)c2)n1)c1cccc(O)c1 (centres undefined) | inconclusive [inhibitor, full curve, poor fit] | –
COc1ccc(C)cc1NC(=O)CCCNC(=O)Cn1cnc2sc(C)c(C)c2c1=O | inconclusive [inhibitor, full curve] | –
CCC1=Nc2cc(C(=O)NCc3ccco3)ccc2Sc2ccccc21 | – | inactive: -2.75%
Cc1cc(OCC(=O)OCC(=O)N2CC(C)CC(C)C2)ccc1Cl (centres undefined) | inconclusive [inhibitor, full curve, poor fit] | –
CC(=O)N1N=C(c2ccco2)CC1c1ccco1 (centres undefined) | inconclusive [inhibitor, partial curve, poor fit] | –
O=C(Nc1cccc(OC(=O)N2CCCCC2)c1)N1CCOCC1 | inconclusive [inhibitor, partial curve] | –
COc1cc(C(C)=O)ccc1OC(=O)N(C)c1ccccc1 | inconclusive [inhibitor, full curve] | –
CCOC(=O)NC(c1ccccc1)C1CCCCC1=O (centres undefined) | inconclusive [inhibitor, single point] | –
CC(=O)c1c(O)n(C)c(=S)n(-c2ccccc2)c1=O | – | inactive: 0.209%
Cc1ccc(-c2cn3cccnc3n2)cc1NC(=O)c1cccs1 | inconclusive [inhibitor, partial curve, poor fit] | –
